The campaign covered roughly 220,000 compounds. About 16,000 (7.3%) were called active. Inconclusive means that the source gave no clear call. Such entries were picked first, then a sample of the others. Calls follow the shape of the dose curve; as a rule, active = well fitted inhibition curve with a large enough effect (not every such curve was filed as active); inconclusive = small, poorly fitted or top-dose-only effect, or another doubt; inactive = no such curve, though single readings can be large or run the other way. No potency is given beside an inconclusive call; the fits are too rough.
These molecules were tested against Aldehyde dehydrogenase 1A1 (Homo sapiens) (UniProt P00352) (assay: qHTS Assay for Inhibitors of Aldehyde Dehydrogenase 1 (ALDH1A1)). Conditions: Purified ALDH1A1, NADH fluorescence, propionaldehyde substrate; series mostly up to 75.3 µM; activity, negative = inhibition: at the top concentration.
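For activity, negative = inhibition in this document: plate controls were no enzyme wells and a reference inhibitor.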
Potency is read from the fitted curve at half-maximal effect; tags tell the direction and shape of the fitted curve.

Chain of UniProt P00352 (P00352 whole entry, looked up): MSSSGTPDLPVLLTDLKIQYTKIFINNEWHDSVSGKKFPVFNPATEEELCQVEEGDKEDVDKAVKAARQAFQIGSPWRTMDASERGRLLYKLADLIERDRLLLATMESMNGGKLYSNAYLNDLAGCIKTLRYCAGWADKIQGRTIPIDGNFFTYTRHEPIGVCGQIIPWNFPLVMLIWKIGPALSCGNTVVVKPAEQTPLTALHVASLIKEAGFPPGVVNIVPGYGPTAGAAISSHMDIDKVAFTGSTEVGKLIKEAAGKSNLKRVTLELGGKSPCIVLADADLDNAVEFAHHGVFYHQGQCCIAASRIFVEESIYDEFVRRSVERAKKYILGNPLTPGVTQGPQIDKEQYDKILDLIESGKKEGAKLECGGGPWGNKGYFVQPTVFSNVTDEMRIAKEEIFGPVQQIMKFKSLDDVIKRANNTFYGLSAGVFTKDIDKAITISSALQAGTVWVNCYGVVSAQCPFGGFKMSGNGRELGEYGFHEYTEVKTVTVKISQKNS

SMILES | activity, negative = inhibition | Potency
CCOC(=O)Nc1sc(C)c(C)c1C(N)=O | inactive: 2.53% | –
O=C1/C(=C/Nc2cccc([N+](=O)[O-])c2)CCc2ccccc21 | – | inconclusive [inhibitor, partial curve]
CCCCNC(=O)CN(c1cccc(F)c1)S(C)(=O)=O | – | inconclusive [inhibitor, single point]
COc1ccc2c(c1)cc1n2CCN2CCCN=C12 | – | inconclusive [inhibitor, partial curve]
COC(=O)c1c(NC(=O)Cc2cccs2)sc(C)c1C | – | inconclusive [inhibitor, single point]
CCc1ccc2[nH]c(=O)c(C(c3nnnn3Cc3ccco3)N3CCC(C)CC3)cc2c1 (configuration not stated) | – | inconclusive [inhibitor, partial curve]
Clc1ccc(-c2csc(=Nc3cccnc3)n2CCCn2ccnc2)cc1Cl | inactive: 0.91% | –
CN1CCN(c2nc3c(c(=O)[nH]c(=O)n3C)n2CCCSc2ncccn2)CC1 | – | inconclusive [inhibitor, single point]
CCNC(=O)c1c(N)sc2c1CCCCC2 | – | active: 28.2 µM
O=C(CNc1ccccc1)N/N=C/c1cn(-c2ccccc2)nc1-c1ccccc1 | – | inconclusive [inhibitor, single point]
COc1cc(C(=O)NC(=S)Nc2nccs2)cc(OC)c1OC | – | inconclusive [inhibitor, single point]
Cc1ccc2[nH]c3c(=O)n4c(nc3c2c1)SCC4 | – | inconclusive [inhibitor, single point]
CC(C)Oc1ccc(OCCn2c(=S)[nH]c3c(N)ncnc32)cc1 | – | active: 10 µM
COCCn1c(C)cc(C(=O)COc2ncnc3ccc(Br)cc23)c1C | inactive: -0.614% | –
Cc1ccc2c(c1)c1c3n2CC(=C2C(=O)OC(C)(C)OC2=O)NC3CCC1 (configuration not stated) | – | active: 10 µM
Cc1ccc2cc(CN(CC3CCCO3)C(=S)NCc3ccco3)c(=O)[nH]c2c1C (configuration not stated) | – | active: 22.4 µM
Cc1ccccc1OCCNC(=O)CNC(=O)c1ccccc1O | – | inconclusive [inhibitor, single point]
C=CCn1c(-c2cc(OC)c(OC)c(OC)c2)n[nH]c1=S | – | inconclusive [inhibitor, single point]
CCOC(=O)c1ccc(NC(=O)CN2C(=O)NC3(CCCCCC3)C2=O)cc1 | inactive: -9.87% | –
Cc1ccc(Nc2c([N+](=O)[O-])c(=O)n(C)c3ccccc23)cc1 | inactive: -4.77% | –
CCOC(=O)c1sc2nc(NC(=O)C3CCCCC3)sc2c1C | – | inconclusive [inhibitor, single point]
COC(=O)Nc1ccc(S(=O)(=O)N2CCCC(C(=O)Nc3cccc4c3OCCO4)C2)cc1 (configuration not stated) | – | inconclusive [inhibitor, single point]
Cc1ccccc1N(CC(=O)NCC1CCCO1)C(=O)C1(C)CC(=O)N=C2C=CC=CN21 (configuration not stated) | – | inconclusive [inhibitor, partial curve]
Cc1cc(C)nc(NNC2=CC(=O)CC(C)(C)C2)n1 | – | active: 25.1 µM
Cc1ccc(N(CC(=O)NCc2ccco2)S(=O)(=O)c2ccccc2)cc1 | – | inconclusive [inhibitor, single point]
COc1ccc(-c2nc(NC(=O)c3ccc(OCC(=O)N4CCOCC4)c(OC)c3)sc2C)cc1 | – | inconclusive [inhibitor, single point]

SMILES | activity, negative = inhibition | Potency
C=CCn1c(SCC(=O)c2ccccc2)nnc1-c1ccc2c(c1)OCO2 | – | active: 25.1 µM
Cc1ccc(CN2CCN(Cc3ccccn3)CC2CCO)cc1 (configuration not stated) | – | inconclusive [inhibitor, single point]
O=C(CCc1ccccc1)Nc1nnc(-c2cccs2)o1 | – | inconclusive [inhibitor, single point]
COc1ccc([N+](=O)[O-])cc1NC(=O)CSCc1ccccc1 | – | inconclusive [inhibitor, partial curve]
CCCCC(CC)COC(=O)C(C#N)=C(c1ccccc1)c1ccccc1 (configuration not stated) | inactive: -13.2% | –
CC1Cc2ccccc2N1C(=O)CNc1cccc(S(=O)(=O)N2CCCC2)c1 (configuration not stated) | – | active: 20 µM
Cc1ccc(/C=c2\sc3nc(-c4cccnc4)nn3c2=O)cc1 | inactive: -3.29% | –
O=C(O)/C=C/C(=O)c1ccc(O)cc1 | – | active: 14.1 µM
NS(=O)(=O)c1ccc(NC(=O)COC(=O)CCc2ccc(S(=O)(=O)N3CCOCC3)cc2)cc1 | – | inconclusive [inhibitor, partial curve]
COc1ccc2cc(C(c3nnnn3C(C)(C)C)N3CCSCC3)c(=O)[nH]c2c1 (configuration not stated) | – | inconclusive [inhibitor, single point]
Cc1ccc(-n2c([S-])c(C(=O)NC(C)c3ccccc3)[n+]3ccccc23)cc1 (configuration not stated) | – | active: 3.16 µM
CCC(=O)N(Cc1ccco1)c1nc(-c2cc(OC)ccc2OC)cs1 | inactive: -1.29% | –
Nc1nn(-c2ccccc2)c(N)c1N=Nc1ccccc1F | inactive: -5.97% | –
CCCCn1nnc(N(C(=O)c2cccs2)C(=O)c2cccs2)n1 | – | inconclusive [inhibitor, single point]
CC1CCC(NC(=O)C2CCN(C(=O)NC3CCCCC3)CC2)CC1 (configuration not stated) | inactive: -0.261% | –
CC(C)c1nnc(NC(=O)C2CCN(c3cnccn3)CC2)s1 | – | active: 31.6 µM
CCOC(=O)C(=O)N(CC)C1CCS(=O)(=O)C1 (configuration not stated) | inactive: 11.2% | –
CCc1nnc(NC(=O)c2ccc3c(c2)C(=O)N(CC(C)C)C3=O)s1 | – | inconclusive [inhibitor, full curve]
COCCN1C(=O)C(=O)/C(=C(/O)c2cccc(OC)c2)C1c1ccc(C)o1 (configuration not stated) | – | inconclusive [inhibitor, single point]
CCN(CC)C(=O)/C(=C/c1cccc([N+](=O)[O-])c1)NC(=O)c1ccco1 | – | inconclusive [inhibitor, single point]
COCCNC(=O)CCC(=O)NNc1nc2ccccc2c2nc(-c3ccccc3)nn12 | inactive: -10.7% | –
C/C(CCN1CCc2nc(-c3ccccc3)c(-c3ccccc3)cc2C1)=N\OC[C@@H](O)COCc1ccco1 | inactive: 2.82% [at 13.5 µM] | –
COC(=O)/C=C/C(=O)N1CCN(c2ccccc2C)CC1 | – | inconclusive [inhibitor, single point]
Cc1ccc2c(CC(=O)NCC3COc4ccccc4O3)coc2c1 (configuration not stated) | – | inconclusive [inhibitor, single point]
CCOC(=O)c1sc(NC(=O)CCN2CCN(CC)CC2)c(C(=O)OCC)c1C | – | active: 10 µM
O=C(CN1CCC(c2nc3ccccc3s2)CC1)NCc1cccs1 | – | active: 6.31 µM

SMILES | activity, negative = inhibition | Potency
O=C(NCc1cccnc1)C(=O)Nc1ccc([N+](=O)[O-])cc1 | inactive: -4.29% | –
N#Cc1cc(Oc2cccc3cccnc23)c(-n2nnc3ccccc32)cc1C#N | inactive: -3.67% | –
N#Cc1c2n(c(=S)n(-c3ccccn3)c1=O)CCCCC2 | inactive: -11% | –
Nc1ccc(N=Nc2ccc(-c3ccc(O)cc3)cc2)c2ccc(S(=O)(=O)O)cc12 | inactive: 0.622% [at 13.5 µM] | –
COC(=O)c1cc(OC)c(OC)cc1NC(=O)CSc1ccccc1 | inactive: -10.1% | –
Nc1ncnc2c1ncn2[C@@H]1O[C@H](COP(=O)(O)OP(=O)(O)O)[C@@H](O)[C@H]1O | – | inactive
Cc1ccc(N/N=C(\C#N)C(=N)N2CCCCCC2)cc1 | – | inconclusive [inhibitor, single point]
CCn1c2ccccc2c2cc(C3C(C#N)=C(N)Oc4n[nH]c(COC)c43)ccc21 (configuration not stated) | – | active: 1.78 µM
O=C(CCN1C(=O)COc2ccccc21)N1CCCCC1 | – | inconclusive [inhibitor, single point]
Cc1sc2nc3ccc(NCc4ccco4)nn3c(=O)c2c1C | – | inconclusive [inhibitor, single point]
CS(=O)(=O)c1cnc2c(S(=O)(=O)c3ccccc3)cnn2c1N | – | inconclusive [inhibitor, single point]
CCCOc1ccc(N2C(=O)CC(N(CCc3ccc(OC)c(OC)c3)C(=S)Nc3ccccc3)C2=O)cc1 (configuration not stated) | – | active: 25.1 µM
O=c1cc(-c2ccccc2)oc2cc(O)cc(O)c12 | – | active: 8.91 µM
O=C1CC2(CCCC2)CC(=O)N1c1ccccc1 | inactive: -0.942% | –
COc1ccc(/C=N/n2c(-c3cccs3)n[nH]c2=S)cc1 | inactive: -8.65% | –
c1csc(CNc2ncnc3ccc(-c4ccc5c(c4)OCO5)cc23)c1 | – | inconclusive [inhibitor, partial curve]
Cc1cc2oc(=O)cc(-c3ccccc3)c2c(C)c1-c1ccoc1 | – | inconclusive [inhibitor, partial curve]
CN(C)/C=C(\C=O)c1onc(-c2ccccc2Cl)c1C#N | – | inconclusive [inhibitor, single point]
CCOc1ccc(-n2c(C)cc(C(=O)CCl)c2C)cc1 | – | active: 0.112 µM
Cc1nnc(N/N=C/c2cccc(OCc3ccc(Cl)c(Cl)c3)c2)n1N | inactive: 3.24% | –
O=Cc1cnc(N2CCN(Cc3ccccc3)CC2)s1 | – | active: 0.794 µM
Nn1c(Cc2cccc3ccccc23)nnc1SCc1c(Cl)cccc1Cl | – | inconclusive [inhibitor, full curve]
COC(=O)N1C2CC3(C)C=C(C)OC1(C)C3c1ccccc12 (configuration not stated) | inactive: 2.49% [at 13.5 µM] | –
Cc1c(Br)c([N+](=O)[O-])nn1C(C)C(=O)Nc1c(C)n(C)n(-c2ccccc2)c1=O (configuration not stated) | inactive: 11.6% | –
Cc1ccc2cc(CN(Cc3ccco3)C(=S)NCC3CCCO3)c(=O)[nH]c2c1 (configuration not stated) | inactive: -8.2% | –

From PubChem BioAssay AID1030 (National Center for Advancing Translational Sciences (NCATS), 2008)
